# Test results published in the supplement of paper PMC3334620.
# Over roughly 33,000 sequences, “E-score (-0.5 to 0.5)” has its median near -0.056; the highest 2% begin near 0.38. The list shows a part of the results.
# Target: Stb4 (UniProt P50104)
# Experiment: PBM E-score (8-mer binding enrichment) (E-score (-0.5 to 0.5)); higher = stronger / more preferred TF binding; most listed sequences are background and not binding sites
# Details: protein concentration: 200 nM; construct: GST-DNA-binding domain
# Protocol: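 Universal 'all 10-mer' protein binding microarrays (Agilent AMADID 015681) probed with GST-tagged S. cerevisiae TFs (full-length or DBD) made by in vitro transcription/translation (PURExpress), about 100-200 nM. Bound TF was detected with fluorescent anti-GST. Each ungapped 8-mer (which stands for itself and its reverse complement) is scored by the PBM enrichment score (E-score), a modified Wilcoxon-Mann-Whitney statistic from -0.5 to +0.5, computed with the Universal PBM Analysis Suite. Scale: above 0.35 generally sequence-specific binding.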
row,Sequence,PBM E-score
1,GACTTAGA,-0.223
2,ACATTGAG,-0.138
3,TCCGCGGA,0.28
4,TTACATAA,-0.0584
5,CACCCTTC,-0.0623
6,CAACAAAA,-0.0488
7,CAGTTACG,-0.177
8,TCCAGAAA,-0.202
9,ATGCTATC,0.0699
10,CTAAGTGA,0.118
11,ACTGTGAA,-0.0173
12,GGTGAGAA,0.00583
13,CACTTGCA,-0.219
14,CAAGGCGA,-0.215
15,ACTCGATC,0.046
16,AGCCGCTG,0.0879
17,CACCTTCA,-0.00615
18,ACCCGTGA,0.204
19,ACCACACC,-0.0502
20,CTGCTAAC,-0.0715
21,GGGACCCC,0.0316
22,AAGGAGGT,-0.0767
23,CTCCTCGC,-0.211
24,ATATGCGG,0.167
25,AGCCGCTC,0.115

row,Sequence,PBM E-score
1,ACGGAGTG,0.0683
2,AGCGCCAT,-0.271
3,CAAGTACC,0.153
4,AGGTCGGC,0.272
5,AGATCCCT,-0.226
6,AACTCTAG,-0.198
7,AAAATGAG,-0.183
8,AATGACGG,0.182
9,CACAGGGG,-0.193
10,CACTGTGC,0.0556
11,GGGGAAGA,-0.186
12,ATCGCTAG,-0.0921
13,TGCGAACA,-0.144
14,CTTCCCTA,-0.108
15,ACTCCAAA,-0.0951
16,ACCATCCC,0.0842
17,AGTTGCCA,-0.187
18,CCTGTCGA,-0.167
19,CTGGTAAC,0.0673
20,AAGGGGAA,-0.275
21,GCACCCAC,0.0103
22,ATAAGCGG,-0.0404
23,AATCTGGG,-0.148
24,AACAGACT,-0.116
25,AGCTAGGA,-0.156

row,Sequence,PBM E-score
1,ACTAGGAT,-0.11
2,CCCGTACC,0.245
3,AAGACAGT,-0.0977
4,AGTAGAAG,-0.184
5,ACAGGGGC,-0.0122
6,CCCCGAAC,0.338
7,CAGTGGTA,-0.239
8,GATTCTCC,0.123
9,TATGTGGA,-0.0886
10,ATGACCGG,0.101
11,AGTATTTC,0.224
12,CCCCTGAC,-0.107
13,CCCTTCAA,-0.164
14,AAACTCGT,-0.228
15,AAATCGGT,0.162
16,TAGGAGAA,-0.235
17,ACTCGAGC,-0.133
18,CAGTTAGC,-0.178
19,AAACTGAG,0.0319
20,AACGATCA,-0.211
21,GTGGCCGA,0.159
22,GTGGATTA,-0.0254
23,AGCAGGAC,0.00143
24,CACTCAGA,-0.239
25,CCGCGGAC,0.219

row,Sequence,PBM E-score
1,ATTGGCCC,-0.178
2,AACTTAAA,-0.114
3,ATACTACA,0.089
4,CACCAGCG,-0.158
5,AATGAGAG,-0.194
6,AACACTGT,-0.105
7,AACGTTTC,-0.0752
8,GGACGACA,-0.091
9,CGCAGAAA,-0.137
10,GGTAGTGA,-0.056
11,CAGTAAAG,-0.0435
12,GCATTCGA,-0.089
13,CAGCAAAA,-0.203
14,CCCCCGCG,0.0742
15,TCGTCTCA,-0.0896
16,CTCTTACC,0.0253
17,CACCAACG,-0.0265
18,AAAGCTAC,-0.176
19,CTCCTCTA,-0.232
20,CTTGCCCA,-0.187
21,GACGGAAA,0.36
22,ACACGGGG,0.0501
23,AGGAAACC,0.0293
24,AGTCAGTG,-0.175
25,AGCAGCCT,-0.222

row,Sequence,PBM E-score
1,AAATTTCG,0.0822
2,GGGTAAAA,0.233
3,CCGTAAAA,0.126
4,CAGTCGTA,0.122
5,GAAGTACC,0.182
6,GTCTCGCA,-0.135
7,GGCCCCCC,0.00643
8,GAAATAGA,-0.00249
9,AAAGTACC,0.183
10,TATAGAAA,-0.0801
11,AGACCGTC,-0.0308
12,CCTCCGCG,0.159
13,ACATAGGC,-0.044
14,ATAGCCAC,-0.13
15,CCGATGTA,0.265
16,CTTCTACC,-0.0346
17,CTGCGGGC,0.0439
18,CTGCGGCC,0.0939
19,GTTCGCAA,-0.0829
20,ACTATAGT,1e-05
21,AATATCAG,-0.18
22,CTTAAAAC,-0.12
23,CATTAAAG,-0.237
24,CGCTAGAC,-0.2
25,CGCCGGCG,0.294

row,Sequence,PBM E-score
1,ACAACACC,-0.121
2,AATCGGGT,0.325
3,GGTTTACA,0.148
4,AAGGCCTG,-0.189
5,AGCGGGGC,-0.03
6,AGCGAATG,-0.259
7,ACCATACG,-0.00752
8,ATTAGCTG,-0.197
9,AAACATGC,0.0147
10,AGTAACGC,-0.172
11,CCATAAGA,-0.0982
12,CTCATGAG,-0.291
13,GAACTAGC,0.0711
14,GCTTCAGA,-0.159
15,ATCCAAAA,-0.0737
16,ATCGAAAA,-0.138
17,CAGAAACG,-0.0234
18,GCGTCACC,-0.145
19,AACCTTCC,0.21
20,CTGAAATA,-0.087
21,TAATTACA,-0.136
22,AAAGTTTA,0.0426
23,GATGAAAC,-0.0811
24,CGGGCGCA,0.191
25,CTTTTCTA,-0.111

row,Sequence,PBM E-score
1,AGGTGGAT,-0.184
2,ACGATGAT,-0.0605
3,ATCAGTTA,0.0232
4,TAGACTGA,-0.17
5,CTTCTAAA,-0.12
6,CGATCCAG,-0.0547
7,GTTCGGCA,0.418
8,GGGTACTA,0.108
9,AACGTTAG,-0.0243
10,CACTCCTA,-0.0758
11,ATAAAAAA,0.0403
12,CGTGGCGA,0.0619
13,TCCGCACA,0.214
14,CTAAATTC,0.0154
15,CGGTTCAC,0.0329
16,AAGCGGAT,0.325
17,AAGACGTA,-0.115
18,GACTAAGA,0.00477
19,ATGAGGTA,-0.172
20,AAAAGTAT,0.047
21,AAGGAACC,0.212
22,ACGGCGTA,-0.278
